The text below walks through data of US20200087297A1.

Where “and” joins values, the source holds several entries; their conditions need not be identical. Equal entries are not always repeated.

The target in this test is CD22 (B-cell receptor CD22-B isoform) (human), P20273. Description: cell-based or functional assay.
CD22 (B-cell receptor CD22-B isoform) (human), P20273, sequence (P20273 20-847): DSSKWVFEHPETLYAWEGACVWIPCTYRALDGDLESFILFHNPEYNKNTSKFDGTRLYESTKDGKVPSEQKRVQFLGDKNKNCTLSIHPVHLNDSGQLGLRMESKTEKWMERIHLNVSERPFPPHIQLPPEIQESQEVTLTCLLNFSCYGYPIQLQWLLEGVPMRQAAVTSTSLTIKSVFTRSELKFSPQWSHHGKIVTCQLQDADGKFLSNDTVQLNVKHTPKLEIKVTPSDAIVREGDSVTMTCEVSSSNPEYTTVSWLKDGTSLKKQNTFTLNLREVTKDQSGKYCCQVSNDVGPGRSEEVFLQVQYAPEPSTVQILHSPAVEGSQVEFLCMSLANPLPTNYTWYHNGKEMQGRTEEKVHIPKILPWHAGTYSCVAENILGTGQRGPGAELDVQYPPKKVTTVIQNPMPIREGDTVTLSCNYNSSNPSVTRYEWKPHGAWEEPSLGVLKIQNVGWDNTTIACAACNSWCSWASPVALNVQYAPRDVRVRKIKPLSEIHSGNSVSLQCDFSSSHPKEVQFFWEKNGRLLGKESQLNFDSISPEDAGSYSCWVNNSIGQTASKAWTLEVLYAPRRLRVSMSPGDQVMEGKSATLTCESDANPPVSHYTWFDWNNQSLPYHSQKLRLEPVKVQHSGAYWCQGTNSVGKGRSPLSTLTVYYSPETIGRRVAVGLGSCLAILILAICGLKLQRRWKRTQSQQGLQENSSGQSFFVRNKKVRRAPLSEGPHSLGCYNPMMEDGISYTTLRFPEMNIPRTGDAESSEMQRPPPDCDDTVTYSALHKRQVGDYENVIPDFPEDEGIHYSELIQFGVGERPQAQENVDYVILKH

B1: Anti-CD22 10F4v3 LC K149C MC-Sq-Cit-PAB-Tubulysin M (antibody, human IgG1, kappa)
heavy: EVQLVESGGGLVQPGGSLRLSCAASGYEFSRSWMNWVRQAPGKGLEWVGRIYPGDGDTNYSGKFKGRFTISADTSKNTAYLQMNSLRAEDTAVYYCARDGSSWDWYFDVWGQGTLVTVSS[letters of human IgG1 constant region omitted]
light: DIQMTQSPSSLSASVGDRVTITCRSSQSIVHSVGNTFLEWYQQKPGKAPKLLIYKVSNRFSGVPSRFSGSGSGTDFTLTISSLQPEDFATYYCFQGSQFPYTFGQGTKVEIKRTVAAPSVFIFPPSDEQLKSGTASVVCLLNNFYPREAKVQWCVDNALQSGNSQESVTEQDSKDSTYSLSSTLTLSKADYEKHKVYACEVTHQGLSSPVTKSFNRGEC
modifications: here or on the partner: MC-Sq-Cit-PAB-Tubulysin M linker-drug on the engineered Cys of LC K149C (Kabat numbering); DAR 1.8-1.9
For B1, the BJAB IC50 (cell killing) is 17.4 nM and 2610 ng/mL; the WSU-DLCL2 IC50 (cell killing) was 0.147 nM and 22.1 ng/mL.

B2: Anti-CD22 10F4v3 LC K149C MC-Sq-Cit-PAB Dolastatin 10 (antibody, human IgG1, kappa)
heavy: EVQLVESGGGLVQPGGSLRLSCAASGYEFSRSWMNWVRQAPGKGLEWVGRIYPGDGDTNYSGKFKGRFTISADTSKNTAYLQMNSLRAEDTAVYYCARDGSSWDWYFDVWGQGTLVTVSS[letters of human IgG1 constant region omitted]
light: DIQMTQSPSSLSASVGDRVTITCRSSQSIVHSVGNTFLEWYQQKPGKAPKLLIYKVSNRFSGVPSRFSGSGSGTDFTLTISSLQPEDFATYYCFQGSQFPYTFGQGTKVEIKRTVAAPSVFIFPPSDEQLKSGTASVVCLLNNFYPREAKVQWCVDNALQSGNSQESVTEQDSKDSTYSLSSTLTLSKADYEKHKVYACEVTHQGLSSPVTKSFNRGEC
modifications: here or on the partner: MC-Sq-Cit-PAB-Dolastatin 10 linker-drug on the engineered Cys of LC K149C (Kabat numbering); DAR 1.8-1.9
As to B2, the WSU-DLCL2 IC50 (cell killing) was 0.385 nM and 57.8 ng/mL.
